Results published in the RNAGym collection of RNA variant scans (doi:10.7554/elife.90254).
The source gives no read counts; variants with many changes may rest on few reads.

B1: LINE1-mini (parent)
chain: GGCAGAGCUCAACACAGCGUGGCAAAGUGGCUGUGGCUAGACUGCC

Variants of: B1
Experiment: self-cleavage, relative activity (ratio to wild type); higher = more cleavage; in vitro, sequencing; the parent is a self-cleaving ribozyme

Q: With GGCAGAGCUCCACACAGCGUGUCAAAGUAGCUGUGGGUAGACUGUC as the variant, how does the self-cleavage read?
A: The self-cleavage was 0.02.

Q: Which self-cleavage does the source give for GGCAGAGCUCCACACAGCGUGUCAAAGUGGCUGGGGCUAGACUGCC here?
A: Its self-cleavage is 0.03.

Q: With GGCAGAGCUCCACACAGCGUGGCAAAUUUGCUGUGGCUAGACUGCC as the variant, how does the self-cleavage read?
A: Its self-cleavage is 0.03.

Q: For GGCAGAGCUCCACACAGCGUGGCAAAUUGGCUGUCGCUAGACUACA, which self-cleavage is on record?
A: The self-cleavage was 0.01.

Q: With GGCAGAGCUCCACACAGCGUGGCAAAGUAGCUGUGGCUAUACUGCC as the variant, how does the self-cleavage read?
A: Its self-cleavage is 0.03.

Q: Which self-cleavage does the source give for GGCAGAGCUCCACACAGCGUGGCAAAGUCGCCGUCGCUAGACUGCC here?
A: The self-cleavage was 0.

Q: For GGCAGAGCUCCACACAGCGUGGCAAAGUCGCUGUGGCUAGACCGCC, which self-cleavage is on record?
A: The self-cleavage was 0.

Q: Which self-cleavage does the source give for GGCAGAGCUCCACACAGCGUGGCAAAGUUGCUGUGGCUAGACUGUC here?
A: The self-cleavage was 0.

Q: For GGCAGAGCUCCACACAGCGUGGCAAAGUUGCAGUGGCUAGACUGCC, which self-cleavage is on record?
A: The self-cleavage was 0.03.

Q: With GGCAGAGCUCCACACAGCGUGGCAAAGUGACUGUGGCUAGUCUGCC as the variant, how does the self-cleavage read?
A: Its self-cleavage is 0.04.

Q: For GGCAGAGCUCCACACAGCGUGGCAAAGUGACUGUGGCUAGACCGCA, which self-cleavage is on record?
A: The self-cleavage was 0.01.

Q: For GGCAGAGCUCCACACAGCGUGGCAAAGUGUAUGUGGCGAGACUGCC, which self-cleavage is on record?
A: The self-cleavage was 0.

Q: For GGCAGAGCUCCACACAGCGUGGCAAAGUGGCUAUGGCUAGAAUGCC, which self-cleavage is on record?
A: The self-cleavage was 0.02.

Q: With GGCAGAGCUCCACACAGCGUGGCAAAGUGGCUUUGGGUAGACUGCC as the variant, how does the self-cleavage read?
A: The self-cleavage was 0.02.

Q: For GGCAGAGCUCCACACAGCGUGGCAAAGUGGCUGUUGCUAGACUCCC, which self-cleavage is on record?
A: Its self-cleavage is 0.01.

Q: Which self-cleavage does the source give for GGCAGAGCUCCACACAGCGUGGCAAAGUGGCUGUGCCUAGAUUGCC here?
A: The self-cleavage was 0.01.

Q: With GGCAGAGCUCCACACAGCGUGGCAAAGUGGCUGUGGCUAAAAUUUC as the variant, how does the self-cleavage read?
A: Its self-cleavage is 0.01.

Q: With GGCAGAGCUCCACACAGCGAGGCAAAGUGGCUGUGGAUAGAGUGCA as the variant, how does the self-cleavage read?
A: Its self-cleavage is 0.

Q: With GGCAGAGCUCCACACAGCGAAGCAAAGUGGCUGUGGCUAGACUGCC as the variant, how does the self-cleavage read?
A: Its self-cleavage is 0.03.

Q: With GGCAGAGCUCCACACAGCGCGGCAGAGUCGCUGUGGCUAGACUUCC as the variant, how does the self-cleavage read?
A: Its self-cleavage is 0.01.

Q: With GGCAGAGCUCCACACAGCGCGGCAAAGUUCCUGUGGCUAGACUGCC as the variant, how does the self-cleavage read?
A: Its self-cleavage is 0.01.

Q: Which self-cleavage does the source give for GGCAGAGCUCCACACAGCGGGGCAAAGUUGCUGUGGCUAGACUGCC here?
A: Its self-cleavage is 0.01.

Q: With GGCAGAGCUCCACACAGCGGGGCAAAGUGGCUUUCGCUAGACUGCC as the variant, how does the self-cleavage read?
A: Its self-cleavage is 0.01.

Q: With GGCAGAGCUCCACACAGCGUGGCAAAGCGGCUGUGGCUGGACUGCA as the variant, how does the self-cleavage read?
A: Its self-cleavage is 0.01.

Q: Which self-cleavage does the source give for GGCAGAGCUCCACACAGCGUGGCAAAGUGGCAGUGCCUAGAUUGCC here?
A: Its self-cleavage is 0.01.

Q: Which self-cleavage does the source give for GGCAGAGCUCCACACAGCGUGGCAAAGUGGCGGUGACUAGAUUGCC here?
A: The self-cleavage was 0.

Q: For GGCAGAGCUCGCCACAGCGUGGCAUAAUGGCUGUGGCUAUACUGCC, which self-cleavage is on record?
A: Its self-cleavage is 0.

Q: Which self-cleavage does the source give for GGCAGAGCUCGCCAUAGAGUGGCAAACUGCAUGUGGCUAGACUGCC here?
A: The self-cleavage was 0.01.

Q: Which self-cleavage does the source give for GGCAGAGCUCGGCGCAGCGUGGCAAAGUCGCUGUGGCUAGACUACC here?
A: The self-cleavage was 0.

Q: With GGCAGAGCUCGGCACAGUGUGGCAAAGUGCCUGUGGCUAGACUGCC as the variant, how does the self-cleavage read?
A: Its self-cleavage is 0.

Q: For GGCAGAGCUCGUCACAGCGUGGAAAAAUGGCUGUGGCUAGCCUGCG, which self-cleavage is on record?
A: Its self-cleavage is 0.

Q: Which self-cleavage does the source give for GGCAGAGCUCGUCACACUGUGGCAAAGUGGCUGUGGGUAGACUGCC here?
A: The self-cleavage was 0.

Q: Which self-cleavage does the source give for GGCAGAGCUCGUCACAGCCUGGCAAAAUGGCUGUGGCUAGACUGCC here?
A: The self-cleavage was 0.01.

Q: Which self-cleavage does the source give for GGCAGAGCUCGUCACAGCGUGUCAAACUGGCUGUGGCUAGCCUGCC here?
A: The self-cleavage was 0.

Q: Which self-cleavage does the source give for GGCAGAGCUCGACCCAGCGUGGUAAGGUGGCUGUGGCUAGGCUGCC here?
A: Its self-cleavage is 0.01.

Q: For GGCAGAGCUCGACCCAGCGUGGCAAAGUGCCUGUGGCUUGACUGCC, which self-cleavage is on record?
A: The self-cleavage was 0.02.

Q: For GGCAGAGCUCGACCCAGCGUGGCAAAGUGGCUGUCGCUCGACUGCU, which self-cleavage is on record?
A: Its self-cleavage is 0.

Q: For GGCAGAGCUCGACUUAGCGUGGCAAAGUGGCUGUGGGUAGACUGCC, which self-cleavage is on record?
A: The self-cleavage was 0.05.

Q: Which self-cleavage does the source give for GGCAGAGCUCGACUCAGCGUGGCAAAGUUGCUGUGGCUAGACUGCC here?
A: Its self-cleavage is 0.02.

Q: Which self-cleavage does the source give for GGCAGAGCUCGACUCAGCGUGGCAAAGUGGCUAUGGCUAGACUUCC here?
A: The self-cleavage was 0.01.

Q: For GGCAGAGCUCGACACCGCGUGGCAAAGUGGCUGUGGCGAGACUGCC, which self-cleavage is on record?
A: Its self-cleavage is 0.

Q: Which self-cleavage does the source give for GGCAGAGCUCGACACGGUGUGGCUAAGUCGCUGUGGCUAGUCUGUC here?
A: Its self-cleavage is 0.

Q: With GGCAGAGCUCGACACUGCGUGGCAUAGUGGCUGUGGUUAGACUGCC as the variant, how does the self-cleavage read?
A: The self-cleavage was 0.05.

Q: With GGCAGAGCUCGACACUGCGUGGCAAAGUGGCUGAGGCUAGACUGCC as the variant, how does the self-cleavage read?
A: Its self-cleavage is 0.02.

Q: Which self-cleavage does the source give for GGCAGAGCUCGACACAGCGUGGCGAAGUGGCUGUGGCUAGUCUGCC here?
A: Its self-cleavage is 0.01.

Q: With GGCAGAGCUCGACACAGCGUGGCUUAGUGGCUGUGGCUUUACUGCC as the variant, how does the self-cleavage read?
A: The self-cleavage was 0.03.

Q: For GGCAGAGCUCGACACAGCGUGGCACAGUGGUUGUGGCUAGACUGCC, which self-cleavage is on record?
A: The self-cleavage was 0.01.

Q: With GGCAGAGCUCGACACAGCGUGGCAGAGUGGCUGUGGCUAGGCUGCU as the variant, how does the self-cleavage read?
A: Its self-cleavage is 0.02.

Q: For GGCAGAGCUCGACACAGCGUGGCAGAGUGACAGUGGCUAGAUUGAC, which self-cleavage is on record?
A: The self-cleavage was 0.01.

Q: Which self-cleavage does the source give for GGCAGAGCUCGACACAGCGUGGCAGAGUGGCUGUGGCCAGACUGCC here?
A: The self-cleavage was 0.01.

Q: For GGCAGAGCUCGACACAGCGUGGCAUAGUGGCUGUGGCUAGCCUGCC, which self-cleavage is on record?
A: Its self-cleavage is 0.03.

Q: With GGCAGAGCUCGACACAGCGUGGCAAGGUGGCUGUUGCUAGACUGCC as the variant, how does the self-cleavage read?
A: Its self-cleavage is 0.01.

Q: With GGCAGAGCUCGACACAGCGUGGCAAAGUGGCUGUGGCUAGGGUGCC as the variant, how does the self-cleavage read?
A: Its self-cleavage is 0.01.

Q: Which self-cleavage does the source give for GGCAGAGCUCGAAACAGCGUGGCUAAGUGGCUGUUGCUAGACUGCC here?
A: The self-cleavage was 0.02.

Q: For GGCAGAGCUCGAAACAGCGUGGCAAAGUGGCUUUGGCUAGACUGCC, which self-cleavage is on record?
A: The self-cleavage was 0.06.

Q: For GGCAGAGCUCGAAACAGCGCGUGAAAGUGGCUGUGGCUAGAGUGCC, which self-cleavage is on record?
A: Its self-cleavage is 0.01.
